Test results from PubChem BioAssay AID504332 (National Center for Advancing Translational Sciences (NCATS), 2011).
The campaign covered roughly 350,000 compounds. About 31,000 (8.9%) were called active. This list was built around the results that the source calls inconclusive (neither active nor inactive); the mix of calls is not that of the screen. Calls come from the whole dose curve; as a rule, active = well fitted inhibition curve with a large enough effect; inconclusive = small, poorly fitted or top-dose-only effect; inactive = no such curve, though single readings can be large or run the other way. Potencies of inconclusive entries are doubtful fits and often do not repeat.

The compounds below were run against Histone-lysine N-methyltransferase EHMT2 (Homo sapiens) (UniProt Q96KQ7) (assay: qHTS Assay for Inhibitors of Histone Lysine Methyltransferase G9a). Conditions: G9a H3K9 monomethylation, AlphaScreen, 2 h; activity, negative = inhibition: at 59 µM (top of the series) unless noted.
Procedure, shortened: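 G9a (20 nM) preincubated 15 min RT with compounds, then 500 nM biotinylated H3K9 peptide and 20 uM SAM added; 2 h RT reaction. Monomethyl-H3K9 product detected by AlphaScreen with anti-H3K9me1 antibody, streptavidin donor and anti-rabbit IgG acceptor beads.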
% is set by controls: 0 for no effect and ±100 for the full control effect; potency is the fitted concentration of half-maximal effect; tags give direction and shape of the fitted curve.
Note: nearly all actives have a fitted effect of over 75% in size.

Sequence of UniProt Q96KQ7 (Q96KQ7 whole entry, looked up): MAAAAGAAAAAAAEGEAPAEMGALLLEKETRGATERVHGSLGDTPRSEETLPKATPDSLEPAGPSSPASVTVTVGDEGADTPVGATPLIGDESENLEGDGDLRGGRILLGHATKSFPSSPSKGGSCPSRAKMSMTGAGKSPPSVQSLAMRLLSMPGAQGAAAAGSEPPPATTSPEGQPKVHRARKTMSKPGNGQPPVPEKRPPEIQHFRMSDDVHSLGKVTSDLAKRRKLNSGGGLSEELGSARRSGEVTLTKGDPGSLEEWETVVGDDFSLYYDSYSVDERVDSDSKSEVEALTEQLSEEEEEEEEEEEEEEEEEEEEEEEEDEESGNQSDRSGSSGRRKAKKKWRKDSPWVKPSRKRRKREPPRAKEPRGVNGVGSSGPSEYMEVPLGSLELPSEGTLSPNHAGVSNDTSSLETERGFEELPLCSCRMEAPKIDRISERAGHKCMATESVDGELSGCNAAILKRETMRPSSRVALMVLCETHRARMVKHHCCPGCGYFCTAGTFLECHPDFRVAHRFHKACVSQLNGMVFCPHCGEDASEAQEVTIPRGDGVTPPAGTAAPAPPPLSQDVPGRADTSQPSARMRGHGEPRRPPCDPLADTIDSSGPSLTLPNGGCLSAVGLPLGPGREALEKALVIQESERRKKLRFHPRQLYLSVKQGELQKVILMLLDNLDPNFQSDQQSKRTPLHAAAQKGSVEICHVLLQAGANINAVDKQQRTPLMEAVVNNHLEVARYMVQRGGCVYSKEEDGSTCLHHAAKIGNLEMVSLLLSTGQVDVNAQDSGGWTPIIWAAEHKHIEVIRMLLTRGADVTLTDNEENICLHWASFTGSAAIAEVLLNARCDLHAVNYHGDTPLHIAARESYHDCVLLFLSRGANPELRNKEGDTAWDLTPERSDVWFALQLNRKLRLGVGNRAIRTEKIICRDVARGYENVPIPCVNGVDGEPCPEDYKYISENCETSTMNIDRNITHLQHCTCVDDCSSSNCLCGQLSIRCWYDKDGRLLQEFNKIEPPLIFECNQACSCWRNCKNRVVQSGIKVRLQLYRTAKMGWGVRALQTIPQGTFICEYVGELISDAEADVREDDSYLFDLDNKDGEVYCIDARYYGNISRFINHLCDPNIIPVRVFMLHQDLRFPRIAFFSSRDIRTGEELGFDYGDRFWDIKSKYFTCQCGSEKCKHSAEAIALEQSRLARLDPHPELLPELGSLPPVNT

Row | Compound | Potency | activity, negative = inhibition
1 | CCOc1ccc(N(CC(=O)NCc2ccc(F)cc2)S(=O)(=O)c2c(C)noc2C)cc1 | inconclusive: 79.4 µM [inhibitor, single point] | 
2 | c1ccc(-c2cc(-c3nn4c(-c5ccco5)nnc4s3)c3ccccc3n2)cc1 | inconclusive: 3.55 µM [inhibitor, single point] | 
3 | COC(=O)C1=C(C)NC(=O)/C1=C\c1cc(C)n(-c2cc(C)cc(C)c2)c1C |  | inactive: -14.7% [at 12.7 µM]
4 | Cc1ccc(F)c(NC(=O)/C(C#N)=C(\O)c2ccc(C(C)(C)C)cc2)c1 | inconclusive: 20 µM [inhibitor, partial curve, poor fit] | 
5 | Cc1ccccc1Nc1c(-c2ccc(N3CCOCC3)cc2)nc2ccccn12 | active: 15.8 µM | 
6 | O=C(NNS(=O)(=O)c1ccc([N+](=O)[O-])cc1)c1ccncc1 | active: 39.8 µM | 
7 | O=C(O)c1oc2ccccc2c1CSc1ccc(Cl)cc1 | inconclusive: 89.1 µM [inhibitor, single point] | 
8 | COc1ccc(NC(=O)CSc2ccc3nc(-c4ccccc4)cn3n2)cc1OC | inconclusive: 28.2 µM [inhibitor, single point] | 
9 | NC(=O)CSc1nnc(Cn2c(=O)sc3ccccc32)n1-c1ccccc1 | inactive | 
10 | Cc1c(Cl)cnc(NC(=O)CSc2nnc3ccccn23)c1Cl | inactive | 
11 | C(=N\Nc1ccc2nncn2n1)/c1ccco1 | inactive | 
12 | CN(C)c1ccc(/C=N/NC(=O)Cn2nnc3ccccc32)cc1 | active: 14.1 µM | 
13 | COc1ccc(-c2nc(SCC(=O)Nc3ccc4c(c3)OCCO4)c(-c3ccc(C)cc3)[nH]2)cc1OC | inactive | 
14 | Cc1nn(CC(=O)c2ccccc2Cl)c(C)c1[N+](=O)[O-] | inconclusive: 50.1 µM [inhibitor, partial curve] | 
15 | COc1ccc(C(CNC(=O)c2ccc(N3CCCC3=O)cc2)N(C)C)cc1 (stereo not given) | inconclusive: 79.4 µM [inhibitor, partial curve, poor fit] | 
16 | CC1CC(C)(C)NC(=S)N1CCCC(=O)Nc1ccc(F)cc1 (stereo not given) | inconclusive: 70.8 µM [inhibitor, partial curve] | 
17 | COc1cccc(NC(=O)CN(C)C(=O)/C=C/c2cn(-c3ccccc3)nc2-c2ccc(C)cc2)c1 | inconclusive: 10 µM [inhibitor, partial curve, poor fit] | 
18 | CCn1nc(C(=O)NCc2nnc3ccccn23)c2ccccc2c1=O | inconclusive: 100 µM [inhibitor, partial curve, poor fit] | 
19 | COc1cc(C2CC(=O)C=C(O)C2)cc(OC)c1OC (stereo not given) | inconclusive: 0.631 µM [inhibitor, partial curve, poor fit] | 
20 | COc1ccc(C2CC(c3cccs3)=NN2C(=O)c2ccco2)cc1OC (stereo not given) | inactive | 
21 | Cc1ccc(C(=O)NC2=NC(c3ccc(C)cc3)CC(=O)N2)cc1 (stereo not given) | inactive | 
22 | O=C(O)c1ccccc1-c1ccccc1C(=O)NCc1ccco1 | active: 50.1 µM | 
23 | Cc1ccc2c(c1)-c1ncc(C(=O)c3ccccc3O)cc1CO2 | inconclusive: 7.94 µM [inhibitor, partial curve, poor fit] | 

Row | Compound | Potency | activity, negative = inhibition
24 | O=C(C[n+]1cc(Br)cc2ccccc21)c1ccc(Br)cc1 | active: 28.2 µM | 
25 | CC1CC(=O)C2=C(C1)OC(N)=C(C#N)C2c1coc2ccccc2c1=O (stereo not given) | inconclusive: 17.8 µM [inhibitor, partial curve, poor fit] | 
26 | O=C(O)c1ccc(S(=O)(=O)c2ccc(Sc3ccc(C(=O)O)c(C(=O)O)c3)cc2)cc1 | active: 44.7 µM | 
27 | O=C(O)CCC(=O)N(Cc1cccs1)Cc1cccs1 | active: 50.1 µM | 
28 | CC(C)(C)c1ccc(S(=O)(=O)N2CCN(Cc3cc4c(cc3O)OCO4)CC2)cc1 | inconclusive: 3.98 µM [inhibitor, single point] | 
29 | CCOc1cc(/C=N/NC(=O)COc2ccc(Cl)cc2)ccc1OS(=O)(=O)c1ccccc1 | inconclusive: 1.78 µM [inhibitor, full curve, poor fit] | 
30 | CCSC1=C(C#N)C(=O)n2c1cc1c2CCCC1 | inconclusive: 3.55 µM [inhibitor, partial curve, poor fit] | 
31 | CCc1ccc(NC(=O)CC2C(=O)N(c3cccc(OC)c3)C(=O)N2C2CCCC2)cc1 (stereo not given) | active: 7.94 µM | 
32 | CCCCCOC(=O)CSc1ncnc2sc3c(c12)CCC(C)C3 (stereo not given) | inactive | 
33 | COCC(=O)N1CCC(Oc2ccc(C(=O)NC3CCOC(C)(C)C3)cc2)CC1 (stereo not given) | inconclusive: 79.4 µM [inhibitor, single point] | 
34 | Cc1cc(SCC(=O)OC(C)C(=O)N(C)c2ccccc2)nc2ccccc12 (stereo not given) | inactive | 
35 | COc1ncc2nc(-c3cc(F)cc(F)c3)c(=O)n(C[C@H]3CCCO3)c2n1 |  | inactive: 4.71% [at 12.7 µM]
36 | CC1CCc2c(sc3ncn(Cc4ccc(C(=O)O)cc4)c(=O)c23)C1 (stereo not given) | inconclusive: 39.8 µM [inhibitor, partial curve, poor fit] | 
37 | CC(C(=O)Nc1ccc(S(=O)(=O)N2CCCC2)cc1)N1CCCC(C(N)=O)C1 (stereo not given) | inconclusive: 35.5 µM [inhibitor, partial curve, poor fit] | 
38 | Cc1ccccc1C(=O)Nc1nnc(-c2ccncc2)o1 |  | inconclusive: -72.6% [inhibitor]
39 | O=C1C2CCCCN2C(=O)N1CCCCN1CCN(c2ccccc2Oc2ccccc2)CC1 (stereo not given) | inconclusive: 89.1 µM [inhibitor, single point] | 
40 | COc1cc(OC)c(OC)cc1CN1CCN(Cc2cccc(F)c2)CC1 | inconclusive: 89.1 µM [inhibitor, single point] | 
41 | O=S(=O)(Nc1ccc2c(c1)OCCO2)c1c(F)cccc1F | active: 39.8 µM | 
42 | COc1ccccc1/C=C/C(=C1/C(=O)N(c2ccccc2)N=C1C)c1ccc(C)cc1 | inconclusive: 5.01 µM [inhibitor, full curve, poor fit] | 
43 | CNC(=O)CN1C(=O)NC(Cc2c[nH]c3ccccc23)C1=O (stereo not given) | inactive | 
44 | Cc1ccc(C)c(CN2C(=O)C3(OCCCO3)c3ccccc32)c1 | inactive | 
45 | CCCn1nnnc1SCC(=O)Nc1cccc(NC(=O)c2ccco2)c1 | inconclusive: 70.8 µM [inhibitor, partial curve, poor fit] | 
